This is an account of results in the BET-seq Pho4 binding data (Le et al. 2018).

The list shows a part of the results. These are noisy estimates, calculated here from bound and input reads.

This assay deals with T1, Pho4 (S. cerevisiae) (UniProt P07270).
T1 sequence: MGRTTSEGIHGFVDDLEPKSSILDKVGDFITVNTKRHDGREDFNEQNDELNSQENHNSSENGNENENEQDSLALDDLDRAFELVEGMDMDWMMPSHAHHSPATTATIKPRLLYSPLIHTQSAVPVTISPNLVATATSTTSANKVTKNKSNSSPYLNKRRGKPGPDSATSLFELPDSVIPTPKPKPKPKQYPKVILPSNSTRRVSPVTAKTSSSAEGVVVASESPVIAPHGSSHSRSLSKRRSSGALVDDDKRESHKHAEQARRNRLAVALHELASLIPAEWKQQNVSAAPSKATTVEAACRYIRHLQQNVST
Briefly: relative binding free energy (BET-seq); higher = weaker binding. As to conditions: reference: library average.
Regarding CGCTGCACGTGTAGTT, the “relative binding free energy” value was 0.03 kcal/mol.

On to GTAGGCACGTGGTCTT, for which the “relative binding free energy” value is -0.13 kcal/mol.

As to GATGGCACGTGAAGTG, the “relative binding free energy” value stood at 0.43 kcal/mol.

With GTTCACACGTGGGGGT, the “relative binding free energy” value is 0.08 kcal/mol.

In the case of GGACTCACGTGGTGTA, the “relative binding free energy” value amounted to 0.21 kcal/mol.

Consider GTTTTCACGTGTGCTG, for which the “relative binding free energy” value is 0.23 kcal/mol.

For TTGGGCACGTGTTAGG, the “relative binding free energy” value was -0.04 kcal/mol.

As to AAGTTCACGTGCGTAG, the “relative binding free energy” value was 0.2 kcal/mol.

With TAATTCACGTGGGATG, the “relative binding free energy” value stood at 0.1 kcal/mol.

On to GGCGGCACGTGGCTAG, for which the “relative binding free energy” value is -0.14 kcal/mol.

For AGATGCACGTGATAGG, the “relative binding free energy” value is -0.02 kcal/mol.

Consider AAAGGCACGTGTACGG, for which the “relative binding free energy” value was -0.17 kcal/mol.

For the sequence TGTATCACGTGGACAT, the “relative binding free energy” value stood at 0.21 kcal/mol.

For the sequence TGGTGCACGTGTATAG, the “relative binding free energy” value was -0.08 kcal/mol.

Regarding TTCTGCACGTGCGGGA, the “relative binding free energy” value was -0.04 kcal/mol.

For AGAGGCACGTGGCCTG, the “relative binding free energy” value was -0.11 kcal/mol.

As to TTTGGCACGTGCATAT, the “relative binding free energy” value was -0.18 kcal/mol.

Turning to GAAGGCACGTGTTGGG, the “relative binding free energy” value was -0.03 kcal/mol.

Consider GGGTGCACGTGGTTGC, for which the “relative binding free energy” value is -0.04 kcal/mol.

Take TGATTCACGTGTAGAG: the “relative binding free energy” value came out at 0.17 kcal/mol.

On to AGCGTCACGTGTTGTC, for which the “relative binding free energy” value turned out to be 0.07 kcal/mol.

As to GTGGACACGTGCTTAT, the “relative binding free energy” value was found to be 0.09 kcal/mol.

As for TTGGTCACGTGGCATG, the “relative binding free energy” value was 0.04 kcal/mol.

GTGCGCACGTGTTGTC: the “relative binding free energy” value is -0.1 kcal/mol.

On to GAAGGCACGTGGTAGG, for which the “relative binding free energy” value was -0.22 kcal/mol.

For GGGTTCACGTGGTGAA, the “relative binding free energy” value turned out to be 0.2 kcal/mol.

Consider TTAATCACGTGGAAGG, for which the “relative binding free energy” value came out at 0.2 kcal/mol.

With TGTTGCACGTGTGATG, the “relative binding free energy” value is 0.05 kcal/mol.

As for TGGAGCACGTGCGGTC, the “relative binding free energy” value was -0.09 kcal/mol.

In the case of AAGAGCACGTGCTGTT, the “relative binding free energy” value was -0.07 kcal/mol.

On to CGTTTCACGTGTTGGT, for which the “relative binding free energy” value is 0.21 kcal/mol.

GTAGTCACGTGCGTGT: the “relative binding free energy” value worked out at 0.07 kcal/mol.

For the sequence GGTGTCACGTGGATCG, the “relative binding free energy” value worked out at 0.14 kcal/mol.

For the sequence GGTGCCACGTGCGGTA, the “relative binding free energy” value was -0.11 kcal/mol.

As for AGCGTCACGTGGGGAG, the “relative binding free energy” value was -0.22 kcal/mol.

Consider GTGCGCACGTGAAAGG, for which the “relative binding free energy” value was found to be 0.33 kcal/mol.

As to CATTTCACGTGTTAGG, the “relative binding free energy” value was determined as 0.28 kcal/mol.

For TGGGTCACGTGGACTC, the “relative binding free energy” value was 0.31 kcal/mol.

In the case of TTGGGCACGTGTCGCA, the “relative binding free energy” value was -0.15 kcal/mol.

GATACCACGTGTGGGT: the “relative binding free energy” value is -0.08 kcal/mol.

Turning to GATTTCACGTGTGTGG, the “relative binding free energy” value came to 0.25 kcal/mol.

Consider TACAGCACGTGGTGGG, for which the “relative binding free energy” value is -0.12 kcal/mol.

Regarding TGGCGCACGTGAGAGG, the “relative binding free energy” value came to 0.04 kcal/mol.

For the sequence TGAATCACGTGAGGAT, the “relative binding free energy” value was found to be 0.32 kcal/mol.

TTACGCACGTGTTTGA: the “relative binding free energy” value was -0.21 kcal/mol.

Take CGGTTCACGTGGCTGT: the “relative binding free energy” value is 0.13 kcal/mol.

For the sequence GCATTCACGTGGAGGT, the “relative binding free energy” value was 0.3 kcal/mol.

As to GGTAACACGTGATGTT, the “relative binding free energy” value was 0.19 kcal/mol.

AGTTACACGTGTTGAG: the “relative binding free energy” value is 0.21 kcal/mol.

Regarding AGGTACACGTGATTGG, the “relative binding free energy” value came out at 0.13 kcal/mol.

Regarding TATTACACGTGGTATC, the “relative binding free energy” value was -0.05 kcal/mol.

On to CTGAGCACGTGTTGAG, for which the “relative binding free energy” value was 0.02 kcal/mol.

Regarding TCATTCACGTGCTTGG, the “relative binding free energy” value was 0.38 kcal/mol.

In the case of TATTCCACGTGATGAG, the “relative binding free energy” value turned out to be 0.15 kcal/mol.

GAATTCACGTGGAAGT: the “relative binding free energy” value came to 0.48 kcal/mol.

As for AAGAGCACGTGTGGGT, the “relative binding free energy” value was -0.09 kcal/mol.

With TATTGCACGTGATCTG, the “relative binding free energy” value came to 0.13 kcal/mol.

With GATAGCACGTGCGGTT, the “relative binding free energy” value is -0.04 kcal/mol.

As to GTTTACACGTGATAGT, the “relative binding free energy” value is 0.11 kcal/mol.

For the sequence TGGGGCACGTGGTGCC, the “relative binding free energy” value is -0.16 kcal/mol.

As for AGGTGCACGTGGCGAT, the “relative binding free energy” value is 0.02 kcal/mol.

For TGTTCCACGTGTTAAG, the “relative binding free energy” value stood at 0.2 kcal/mol.

Consider TGTGACACGTGGTGCT, for which the “relative binding free energy” value is -0.09 kcal/mol.

Consider ACTGGCACGTGAGGTA, for which the “relative binding free energy” value is 0.02 kcal/mol.

As for AGCGCCACGTGGGGGA, the “relative binding free energy” value is -0.2 kcal/mol.

For TTTTTCACGTGTCGCG, the “relative binding free energy” value was found to be 0.31 kcal/mol.

TATCCCACGTGGGGGG: the “relative binding free energy” value is -0.14 kcal/mol.

In the case of TGAGGCACGTGGCGTC, the “relative binding free energy” value was -0.29 kcal/mol.

TAGGTCACGTGTGCCG: the “relative binding free energy” value came out at 0.11 kcal/mol.

For GGAAGCACGTGTGATG, the “relative binding free energy” value was -0.1 kcal/mol.

As to CGATTCACGTGCTTGT, the “relative binding free energy” value is 0.36 kcal/mol.

For the sequence GGGCGCACGTGGTGAC, the “relative binding free energy” value was -0.04 kcal/mol.

Turning to AGTGCCACGTGTGGTT, the “relative binding free energy” value came out at 0.07 kcal/mol.

As to AGTGTCACGTGTAGGA, the “relative binding free energy” value is -0.07 kcal/mol.

As to GTTAACACGTGAGGAG, the “relative binding free energy” value amounted to 0.09 kcal/mol.

As to TTCATCACGTGAGAGT, the “relative binding free energy” value turned out to be 0.34 kcal/mol.

Take CTGTCCACGTGGTAGG: the “relative binding free energy” value stood at 0.11 kcal/mol.

For GGTAGCACGTGAGTAT, the “relative binding free energy” value stood at 0.15 kcal/mol.

TGTAGCACGTGGGTTG: the “relative binding free energy” value is -0.18 kcal/mol.

Take TTGAACACGTGTGAAT: the “relative binding free energy” value stood at 0.18 kcal/mol.

Consider CGGAACACGTGGTTGG, for which the “relative binding free energy” value amounted to 0.03 kcal/mol.

Regarding TCGTGCACGTGTCTTG, the “relative binding free energy” value was -0.07 kcal/mol.

TGGCACACGTGGTTGG: the “relative binding free energy” value is 0.04 kcal/mol.

Turning to TGGGCCACGTGCGGGT, the “relative binding free energy” value is -0.16 kcal/mol.

Take TTATGCACGTGGTCTT: the “relative binding free energy” value was -0.13 kcal/mol.

For GTTGTCACGTGTGTAG, the “relative binding free energy” value turned out to be 0.09 kcal/mol.

Regarding TTGGGCACGTGTCGTA, the “relative binding free energy” value is -0.11 kcal/mol.

On to TTTAGCACGTGAAGTA, for which the “relative binding free energy” value worked out at 0.24 kcal/mol.

Regarding GTTACCACGTGGTGTT, the “relative binding free energy” value is -0.11 kcal/mol.

ATGGTCACGTGTAGAG: the “relative binding free energy” value came to 0.14 kcal/mol.

Take TAGGGCACGTGGCCAG: the “relative binding free energy” value was -0.17 kcal/mol.

Regarding CGGGGCACGTGGGGAT, the “relative binding free energy” value is -0.17 kcal/mol.

With CCTGTCACGTGGGTGG, the “relative binding free energy” value was -0.13 kcal/mol.

As for CACTGCACGTGGGTTG, the “relative binding free energy” value is -0.13 kcal/mol.

On to TGCTGCACGTGGGTAA, for which the “relative binding free energy” value is -0.17 kcal/mol.

For GCTTTCACGTGTGGGA, the “relative binding free energy” value amounted to 0.2 kcal/mol.

Take TGCAGCACGTGGTATG: the “relative binding free energy” value was -0.13 kcal/mol.

Consider TAAGTCACGTGATAAT, for which the “relative binding free energy” value is 0.17 kcal/mol.

Consider TACTGCACGTGGGGAT, for which the “relative binding free energy” value is -0.14 kcal/mol.

With TTAAGCACGTGAAGGG, the “relative binding free energy” value is 0.31 kcal/mol.

Consider AGTTTCACGTGATTGG, for which the “relative binding free energy” value is 0.32 kcal/mol.

On to CAGGGCACGTGATGGT, for which the “relative binding free energy” value is -0.03 kcal/mol.

Consider CTGGGCACGTGGAAGG, for which the “relative binding free energy” value was -0.11 kcal/mol.

With GTTTGCACGTGTGTCC, the “relative binding free energy” value amounted to 0.13 kcal/mol.

For the sequence CAAGTCACGTGAGGTG, the “relative binding free energy” value is 0.26 kcal/mol.

As for ATTTTCACGTGCTTGT, the “relative binding free energy” value came out at 0.26 kcal/mol.

As for TGTTTCACGTGTATCA, the “relative binding free energy” value was found to be 0.2 kcal/mol.

Take ATTTGCACGTGCAAAT: the “relative binding free energy” value turned out to be 0.04 kcal/mol.

With TATGGCACGTGATAGA, the “relative binding free energy” value is -0.12 kcal/mol.

GTTTGCACGTGGGGAA: the “relative binding free energy” value was -0.06 kcal/mol.

Consider TAGGTCACGTGACGAG, for which the “relative binding free energy” value came out at 0.17 kcal/mol.

Turning to TTGGACACGTGTTTAC, the “relative binding free energy” value is 0.12 kcal/mol.

As for AGCGTCACGTGCGTGG, the “relative binding free energy” value is -0.04 kcal/mol.

As to CTTGCCACGTGTGGTA, the “relative binding free energy” value worked out at 0 kcal/mol.

In the case of GGTTCCACGTGAAAGG, the “relative binding free energy” value came out at 0.36 kcal/mol.
